In PubChem BioAssay AID1508623 (National Center for Advancing Translational Sciences (NCATS), 2021):
The whole screen tested about 48,000 compounds, of which about 450 (0.94%) were called active. Roughly 19% stayed inconclusive and do not appear here. Calls come from the whole dose curve; as a rule, active = well fitted inhibition curve with a large enough effect; inconclusive = small, poorly fitted or top-dose-only effect; inactive = no such curve, though single readings can be large or run the other way. Some of the results follow.

assay: Primary qHTS for Identification of Small Molecule Inhibitors of Huntingtin Promoter Activity; settings: HEK293 HTT promoter firefly luciferase reporter (activity 0% = vehicle and -100% = no light), 24 h; series mostly up to 57.5 µM; activity change, negative = inhibition: at the top concentration; note: nearly all actives have a fitted effect of over 50% in size
Outline: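 Quantitative HTS used concentration series of up to 57.5 uM final on HEK293 luciferase reporter cells, 24 h at 37 degrees C. Readout was Dual-Glo firefly luminescence.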
Potency is the fitted concentration of half-maximal effect.

Activity change, negative = inhibition, inactive:
CCOc1ccc(C(CC(=O)Nc2cc(C)c(Cl)cc2OC)N2Cc3ccccc3C2=O)cc1OC (stereo unspecified) -23.4%
COC(=O)c1ccccc1NC(=O)CCc1c(C)nc2c(c(C)nn2-c2ccccc2)c1C 11.4%
COc1ccc(Cn2ccc3nc(C)c(C(=O)NCc4ccc(OC)cc4OC)cc3c2=O)cc1 8.23%
COc1cccc(CNC(=O)CCCn2nc(C)n3c(cc4sccc43)c2=O)c1 -0.0687%
CCN(C(=O)c1nn(-c2ccc(C)cc2)c(=O)c2c1c1ccccc1n2C)c1ccc(F)cc1 -8.48%
O=C(Nc1nnc(S(=O)(=O)N2CCCC2)s1)c1ccccc1F 19.2%
Cc1ccc(N2CC(NC(=O)c3ccco3)CC2=O)cc1C (stereo unspecified) -25.6%
CC(C)COc1ccc(-c2nonc2NC(=O)c2ccc(F)cc2)cc1 -21.7%
O=C(NCCc1ccccc1)c1ccc(CSc2nc3ccncc3n2Cc2ccccc2F)cc1 7.14%
O=C(Cn1ncc2c([nH]c3ccccc32)c1=O)NCc1cccc(Cl)c1 6.93%
CCOC(=O)c1cnc2c(C)cc(Cl)cc2c1NCCc1ccc(OC)c(OC)c1 1%
COc1ccc(NC(=O)C(C)n2c(C)c3cnn(-c4ccccc4)c(=O)c3c2C)cc1Cl (stereo unspecified) -26.5%
O=C(CC1N=C2c3ccccc3N=C(SCc3ccccc3Cl)N2C1=O)NCc1cccs1 (stereo unspecified) -17.2%
COc1ccc(C(=O)NNc2ncnc3c2cnn3-c2ccccc2)cc1 -22.1%
CCOC(=O)C1CCCN(Cc2cn3c(-c4ccc(Br)cc4)nnc3s2)C1 (stereo unspecified) -11.5%
CCOc1ccc(NC(=O)Cc2ccc(-n3c(C)nc4cccnc43)cc2)cc1 -14.2%
CC(=O)N1CCC(N(Cc2ccco2)C(=O)Nc2ccc(Br)cc2F)CC1 -0.482%
Cc1ccc(NC(=O)CN2C(=O)c3ccccc3Sc3ccc(C(=O)N4CCCC4)cc32)cc1 8.66%
CCN(CC)CCNC(=O)c1[nH]c2ccccc2c1Sc1ccc(Cl)cc1 -25.8%
COc1ccc(NC(=O)C(NC(=O)/C=C\c2ccc3c(c2)OCO3)c2ccc(OC)cc2)cc1 (stereo unspecified) -23%
COC(=O)c1c(NC(=O)COc2c(C)ccc(C)c2C)sc2c1CCC(C)C2 (stereo unspecified) -3.81%
CC1=C(C(=O)Nc2cccnc2)C(c2ccc(Cl)cc2)n2nc(SCc3ccccc3)nc2N1 (stereo unspecified) -5.4%
CCN(CC)c1cc2c(cc1F)c(=O)c(S(=O)(=O)c1ccc(C)cc1)cn2Cc1ccc(F)cc1 -7.42%
CCOc1ccc(NC(=O)[C@H](Cc2ccccc2)N2Cc3ccccc3C2=O)cc1 -16.8%
O=C(Cn1ncc2ccsc2c1=O)N1CCN(c2ccccc2)CC1 2.52%
CCCSc1nc2c(c(=O)[nH]1)C(c1ccc(F)cc1F)CC(=O)N2 (stereo unspecified) -17.7%
CCCN1CCN(c2ncnc3sc(C(=O)Nc4cccc(Cl)c4C)c(C)c23)CC1 -23%
CCC1CCc2nc3sc(C(=O)Nc4ccc(F)c(F)c4)c(N)c3cc2C1 (stereo unspecified) 12.9%
COc1ccc(NC(=O)CSc2nc3c(c(=O)[nH]2)CCC3)cc1 -10.8%
CC(C)c1ccccc1Oc1c(C(F)(F)F)oc2c(CN3CCN(C)CC3)c(O)ccc2c1=O -24.1%
CCOc1ccccc1Nc1sc(C(=O)c2ccc(Cl)cc2)c(N)c1C(=O)NCCc1ccccc1 -14.6%
O=C(Cn1c(=O)n(CCc2ccccc2)c(=O)c2c3c(sc21)CCCC3)Nc1ccc(F)c(F)c1 2.59%
CCCc1nnc(NC(=O)Cc2coc3ccc(C)cc23)s1 -0.392%
Cc1ccccc1NC(=O)CSc1nc2ccccc2c2nc(CCn3c(C)nc4ccccc43)nn12 0%
Cc1ccc(CNC(=O)c2cn(C)c3ccc(S(=O)(=O)N4CCOCC4)cc3c2=O)cc1 -4.36%
COc1ccccc1N1CCN(C(=O)c2cc3c(=O)oc4ccc(C)cc4c3s2)CC1 -18.4%
CCOc1ccc(-c2nc(CNC(=O)Nc3ccccc3)c(C)o2)cc1 -12.6%
COc1cc(NC(=O)c2nn(-c3ccc(F)cc3)c(=O)n(C)c2=O)cc(OC)c1OC -6.95%
CCn1c(C(=O)N2CCC(C(=O)NCCCOC)CC2)cc2sccc21 9.22%
O=C(COCc1cc(-c2cccs2)on1)NCc1cccc(Cl)c1 -11.6%
CC(C(O)c1ccc(O)cc1)N1CCC(Cc2ccccc2)CC1 (stereo unspecified) 3.04%
Cc1cn(S(=O)(=O)c2ccc(F)c(Cl)c2)cn1 1.6%
O=C(CCSCc1ccccc1Cl)N1CCN(c2ccc(F)cc2)CC1 -20.7%
CC(Oc1ccccc1)C(=O)N1CCN(Cc2cc(=O)n3nc(-c4ccccc4Cl)sc3n2)CC1 (stereo unspecified) -26.7%
CCc1ccc(C(=O)c2cn(CC(=O)Nc3ccc4c(c3)OCCO4)c3ccc(C)cc3c2=O)cc1 -11.4%
CC(=O)c1ccc(NC(=O)COc2ccccc2-c2nc(-c3ccccc3)no2)cc1 -11%
COCc1cc(C)nc2sc3c(c12)NC(c1ccccc1C(=O)O)N(c1ccc(OC)cc1)C3=O (stereo unspecified) 17.4%
O=c1c2c3c(sc2n(Cc2cc(=O)n4ccccc4n2)c(=O)n1-c1ccccc1)CCC3 11.1%
Cc1ccc(C)c(NC(=O)c2nnn(CC(=O)Nc3cccc(C)c3C)c2N)c1 -11.3%
O=c1cc(CN2CCN(S(=O)(=O)c3ccccc3)CC2)nc2sc(-c3ccccc3Cl)nn12 -7.39%
Cc1ccc(NC(=O)C(Cc2ccccc2)NS(=O)(=O)c2cccs2)cc1Cl (stereo unspecified) -0.353%
O=C(CS(=O)(=O)c1nc(-c2ccc(Cl)cc2)cn1-c1ccccc1)Nc1ccc(F)cc1F -4.86%
COc1ccccc1CNC(=O)CN1C(=O)c2cccnc2Oc2ccccc21 2.16%
Cc1ccc(-c2noc(CSc3nnc(C)n3-c3ccc(C)cc3)n2)cc1 -27.7%
COc1ccc(OCCSc2nc3ccccc3n2CC(=O)N2CCOCC2)cc1 -15.3%
COc1ccc(NC(=O)CCCc2nnc3n(CCC(C)C)c(=O)c4sccc4n23)cc1Cl -28.3%
CCOc1ccc(CNC(=O)C2CCN(C(=O)c3sccc3-n3cccc3)CC2)cc1 -24.9%
Cc1ccc(-n2c(SCCC(C)C)nc3sc4c(c3c2=O)CC(C)(C)OC4)cc1 -14.1%
COc1ccc(-c2cc(C(C)=O)c(C)n2CCC(=O)NC2CCCCC2)cc1 -13.3%
CCOc1ccc(CNC(=O)CN2C(=O)C3CCCCN3c3ccc(C(=O)N4CCCC4)cc32)cc1 (stereo unspecified) 0.571%

Potency, active:
Cc1ccccc1NC(=O)c1c(NC(=O)C(F)(F)F)sc2c1CCCCC2 2 µM
